# Experimental data taken from the antibiotic and cytotoxicity screens of Wong et al. (2023).
# Some of the results follow.
# Tested on: HSkMC (human skeletal muscle cells)
# Experiment: cytotoxicity call (relative viability < 0.9)
# Conditions: 10 µM
row,Compound,cytotoxicity call
1,C[C@H](CO)N1C[C@H](C)[C@@H](CN(C)S(=O)(=O)c2cn(C)cn2)OCCCC[C@H](C)Oc2ccc(NC(=O)c3ccncc3)cc2C1=O,inactive
2,CC(=N)NCCSCC[C@H](N)C(=O)O,inactive
3,Cc1ccc(S(=O)(=O)N(C)C[C@@H]2OCCCC[C@@H](C)Oc3ccc(NS(=O)(=O)c4ccc(F)cc4)cc3C(=O)N([C@@H](C)CO)C[C@@H]2C)cc1,inactive
4,O=C(/C=C/c1ccc(O)c(O)c1)O[C@@H]1C[C@@](O)(C(=O)O)C[C@@H](O)[C@@H]1O,inactive
5,NC(=O)NCc1ccc2c(c1)OCO2,inactive
6,CC1=NC(=O)C2(CCNCC2)N1,inactive
7,C[C@H](CO)N1C[C@H](C)[C@H](CN(C)S(=O)(=O)c2cccs2)Oc2ccc(NS(=O)(=O)c3cn(C)cn3)cc2C1=O,inactive
8,CN(C)CCCNC(=O)C[C@H]1CC[C@@H]2[C@H](COc3ccc(NC(=O)c4ccc5c(c4)OCO5)cc3C(=O)N2C)O1,inactive
9,Cc1ccc(S(=O)(=O)Nc2ccc3c(c2)CC(=O)N([C@H](C)CO)C[C@@H](C)[C@@H](CN(C)C(=O)Nc2ccc(C(F)(F)F)cc2)O3)cc1,inactive
10,C[C@@H]1CN([C@@H](C)CO)C(=O)c2cc(NC(=O)CCCN(C)C)ccc2O[C@H]1CN(C)C(=O)Nc1ccc(F)cc1,inactive
11,CCN1CCN(C(=O)CN2C(=O)c3ccccc3S2(=O)=O)CC1,inactive
12,CC(=O)OC1CC(O)C(C)(C)C2CC(OC(C)=O)C3(C)C(CCC4(C)C(c5ccoc5)OC(=O)C5OC543)C12C (stereo not drawn),inactive
13,CN(C)CC(=O)N1[C@@H]2c3cccc(=O)n3C[C@H]1[C@H](CO)[C@H]2C(=O)NCc1ccccc1,inactive
